Measurements taken from PubChem BioAssay AID1645886 (National Center for Advancing Translational Sciences (NCATS), 2021).
The campaign covered roughly 16,000 compounds. About 260 (1.6%) were called active. This list was built around the results that the source calls inconclusive (neither active nor inactive); the mix of calls is not that of the screen. Calls follow the shape of the dose curve; as a rule, active = well fitted inhibition curve with a large enough effect; inconclusive = small, poorly fitted or top-dose-only effect; inactive = no such curve, though single readings can be large or run the other way. Potencies of inconclusive entries are left out as doubtful fits.

Molecular target: Rap guanine nucleotide exchange factor 4 (Homo sapiens) (UniProt Q8WZA2)
Chain of UniProt Q8WZA2 (Q8WZA2 whole entry, looked up): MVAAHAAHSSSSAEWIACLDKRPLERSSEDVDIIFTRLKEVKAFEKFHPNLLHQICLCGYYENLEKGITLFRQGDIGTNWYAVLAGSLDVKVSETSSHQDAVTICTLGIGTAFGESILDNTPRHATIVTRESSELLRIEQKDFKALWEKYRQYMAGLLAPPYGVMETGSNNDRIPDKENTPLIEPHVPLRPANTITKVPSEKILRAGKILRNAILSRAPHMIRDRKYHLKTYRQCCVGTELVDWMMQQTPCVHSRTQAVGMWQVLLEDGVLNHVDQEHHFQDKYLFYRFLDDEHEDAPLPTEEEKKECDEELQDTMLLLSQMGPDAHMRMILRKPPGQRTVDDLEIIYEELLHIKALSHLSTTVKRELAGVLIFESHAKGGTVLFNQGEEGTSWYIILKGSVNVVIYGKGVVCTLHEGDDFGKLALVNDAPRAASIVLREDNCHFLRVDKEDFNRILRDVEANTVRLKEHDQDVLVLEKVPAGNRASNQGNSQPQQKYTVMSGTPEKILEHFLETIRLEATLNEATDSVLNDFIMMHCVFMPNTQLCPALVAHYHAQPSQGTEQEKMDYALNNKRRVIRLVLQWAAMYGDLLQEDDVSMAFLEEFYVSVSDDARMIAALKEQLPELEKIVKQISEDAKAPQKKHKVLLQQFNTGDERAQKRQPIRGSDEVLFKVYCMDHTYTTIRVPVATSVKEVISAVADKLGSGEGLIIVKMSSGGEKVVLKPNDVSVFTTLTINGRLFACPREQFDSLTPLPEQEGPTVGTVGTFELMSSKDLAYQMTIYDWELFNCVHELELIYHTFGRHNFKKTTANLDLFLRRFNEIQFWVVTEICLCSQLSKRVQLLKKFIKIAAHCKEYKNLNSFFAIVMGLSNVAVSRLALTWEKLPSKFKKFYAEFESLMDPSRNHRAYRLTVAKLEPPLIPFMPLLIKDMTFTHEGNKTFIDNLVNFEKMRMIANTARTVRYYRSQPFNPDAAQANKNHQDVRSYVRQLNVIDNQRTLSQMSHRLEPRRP
Assay: Validation qHTS for antagonist of cAMP-regulated guanine nucleotide exchange factor 4 (EPAC2); also: nearly all actives have a fitted effect of over 40% in size;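 as to activity, negative = inhibition: 100% = activation by cAMP agonist control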
Details: EPAC2 Rap1B BODIPY-GDP exchange, fluorescence; activity, negative = inhibition: at 112 µM (top of the series)
Summary of the method: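 Fluorescent exchange read-out: 100 nM EPAC2 with 250 nM RAP1B–BODIPY-GDP and 50 uM GDP; BODIPY-GDP release lowers fluorescence. Read at 480/540 nm every 5 min for 30 min at room temperature; normalized to 6.5 mM cAMP.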
Potency is read from the fitted curve at half-maximal effect; tags tell the direction and shape of the fitted curve.

Row | Structure (SMILES) | Potency | activity, negative = inhibition
1 | O=S1(=O)CCO[C@H]2CCCC[C@@H]2N1Cc1ccc(Cl)cc1 | inconclusive [inhibitor, partial curve, poor fit] | –
2 | CN1CCN(c2ncc3nc(-c4cccs4)c(=O)n(C[C@H]4CCCO4)c3n2)CC1 | inconclusive [inhibitor, single point] | –
3 | COC(=O)[C@H](Cc1ccccc1)N(Cc1ccc(C)cc1)S(C)(=O)=O | inconclusive [inhibitor, full curve, poor fit] | –
4 | Cc1cc(-c2ccc(N=Nc3ccc4c(S(=O)(=O)O)cc(S(=O)(=O)O)c(N)c4c3O)c(C)c2)ccc1N=Nc1ccc2c(S(=O)(=O)O)cc(S(=O)(=O)O)c(N)c2c1O | inconclusive [inhibitor, single point] | –
5 | Cc1cc(C)cc(C(=O)C[n+]2cccc(Br)c2)c1 | – | inactive: -17.6%
6 | N#Cc1ccc(CN2CC[C@@]3(CCCN(C(=O)c4ccco4)C3)C2)cc1 | – | inactive: -12.2%
7 | Cc1ccnc2cc(Cl)cc(Cl)c12 | inconclusive [inhibitor, full curve, poor fit] | –
8 | COc1ccccc1-c1ccc2ncnc(N3CCOCC3)c2c1 | inconclusive [inhibitor, partial curve, poor fit] | –
9 | O=C(Cn1cc2ccccc2n1)N1CCOc2ccc(C(O)C3CCCCC3)cc2C1 (stereo unspecified) | inconclusive [inhibitor, full curve] | –
10 | Cc1cnc(C)c(-c2cc(F)cc3c2OC(CNC(=O)CN2CCCC2)C3)n1 (stereo unspecified) | inconclusive [inhibitor, partial curve, poor fit] | –
11 | C#C[C@]1(O)CCC2C3CCC4=Cc5oncc5C[C@@]4(C)C3CC[C@@]21C (stereo partly specified) | – | inactive: -8.84%
12 | CCC1CN(CC(=O)NCc2ccc3c(c2)OCO3)Cc2ccc(Cl)cc2O1 (stereo unspecified) | inconclusive [inhibitor, single point] | –
13 | CCCCCc1c2c(cc(O)c1C(=O)O)OC(=O)c1c(cc(OC)cc1C(=O)CCCC)O2 | inconclusive [inhibitor, partial curve, poor fit] | –
14 | O=C1CCN(Cc2ccccc2)CCN1[C@H](CO)c1ccccc1 | inconclusive [inhibitor, single point] | –
15 | CCOC(=O)/C=C/c1ccc(C(F)(F)F)cc1S(=O)(=O)NC(C)(C)C | inconclusive [inhibitor, full curve] | –
16 | CCCCC/C=C\C/C=C\CCCCCCCC(=O)O[C@@H](CO)COC(=O)CCCCCCCCCCCCCCCCC | inconclusive [inhibitor, single point] | –
